{"source": "PubChem BioAssay AID504842", "about": "(National Center for Advancing Translational Sciences (NCATS), 2011)", "note": "Hit rate of the full screen: of about 330,000 compounds, about 100 (0.03%) were called active. Inconclusive results (about 1%) are left out. The call rests on the fitted dose curve; in most records, active means well fitted inhibition curve with a large enough effect; inconclusive means small, poorly fitted or top-dose-only effect; inactive means flat fitted curve, though single readings scatter. The list shows a part of the results, in another mix than the full data. On the % scale 0 is the no-effect control and ±100 the full control effect; potency means the concentration at half of the fitted maximal effect."}
{"tested_on": "Chaperonin Mm-Cpn (Methanococcus maripaludis)", "assay": "Inhibitors of TCP-1 ring complex (TRiC) of Methanococcus maripaludis (MmCpn): qHTS; further: nearly all actives have a fitted effect of over 80% in size;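 on Potency: enzyme at 25 nM with ATP substrate at 10 µM during the reaction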", "conditions": "purified Mm-Cpn ATPase, ADP Transcreener TR-FRET; series mostly up to 76.9 µM; activity, negative = inhibition: at the top concentration", "description": "The eukaryotic chaperonin TRiC (for TCP-1 ring complex) is an essential and conserved chaperone required for the folding and activation of 10-15% of the proteins encoded by the human genome. […] The TRiC complex consist of two stacked 7-9 membered rings, each containing a central cavity. Substrates are folded within the cavity in an ATP-dependent manner. TRiC is a complex of eight different, essential proteins. As each of the genes encoding the eight subunits is essential for cell viability and no protocol has been developed to over-express this enzyme to high levels. That is why several groups studying the TRiC chaperonin have turned to the archaeal homolog of TRiC, Methanococcus maripaludis (Mm-CPN), and have used this enzyme as a model system for the study of the type II chaperonin family. Small molecule inhibitors of the Mm-CPN enzyme would be extremely useful to study the mechanism of chaperonin activity. Importantly, TRiC and Mm-CPN both require ATP hydrolysis for function. Furthermore, the ATP binding sites are highly conserved among these type II chaperonins. This provides us with an easy, well tested and straightforward assay to identify inhibitors of chaperonin activity. The Mm-CPN assay was developed in 1536-well plate format using the HTRF Transcreener ADP assay kit (Cisbio, Bedford, MA). This assay applied the time resolved fluorescence resonance energy transfer (TR-FRET) principle. ATP in the presence of Mm-CPN is converted to ADP + Pi. An antibody labeled with Eu3+-Cryptate specific and bound to ADP labeled with […] (d2) competes with the unlabeled ADP generated by Mm-CPN. The resulting TR-FRET signal is inversely proportional to the concentration of ADP in the sample. In this assay a reduction in TR-FRET signal is observed with ATP turnover. NIH Chemical Genomics Center [NCGC] NIH Molecular Libraries Probe Centers Network [MLPCN] MLPCN Grant: DA030554-01A1 Assay Submitter (PI): Judith Frydman, Stanford University\nPurified Mm-CPN was supplied by the laboratory of Dr. Judith Frydman. Protein samples were stored at -80C as single use aliquots. Protein was thawed in ambient temperature water bath and placed on ice once thawed. Buffer was prepared fresh day of screen. The buffer composition below was used to prepare the working solution of the Mm-CPN protein and ATP substrate. The buffer is comprised of 30 mM TRIS pH 7.4, 100mM KCl, 5mM MgCl2, and 1mM DTT. A final concentration of 25nM Mm-CPN and 10uM ATP per well were used in the screen. Instructions according to the manufacturer were followed for the ADP Transcreener kit. Used 1536 well Greiner white, medium binding (MB), solid bottom plates. Plates were read on the PerkinElmer EnVision plate reader using Excitation = 320 nm and Emission = […], 665 nm. Protocol- 1.Dispense 1.5ul per well of working [Mm-CPN] = 50nM (or 75 ng / well) 2.Spin plate at 1000 rpm for 30 seconds 3.23nl of compound transferred per well 4.Incubate at 37degC for 10 minutes 5.Dispense 1.5ul per well of working [ATP] = 20uM 6.Incubate at 37degC for 30 minutes 7.Dispense 3ul per well of Anti-ADP Cryptate / ADP-d2 mix (prepared as instructed by Cisbio) 8.Incubate at ambient for 30 minutes 9.Read using EnVision"}
{"smiles": "CC(C)(C)OC(=O)C[C@@H]1C/C=C\\C[C@H](CC(=O)N[C@H](CO)Cc2ccccc2)C(=O)N[C@H](Cc2ccccc2)COC1=O", "activity, negative = inhibition": "inactive: -9.31%"}
{"smiles": "Cc1ccccc1C(=O)NCC(c1ccco1)N1CCc2ccccc2C1", "note": "(configuration not stated)", "Potency": "active: 39.8 µM"}
{"smiles": "O=C1O/C(=C/c2ccccc2)c2ccccc21", "activity, negative = inhibition": "inactive: 3.79%"}
{"smiles": "CCOC(=O)C1CCCC(NS(=O)(=O)c2ccc(NC(C)=O)cc2)C1", "note": "(configuration not stated)", "activity, negative = inhibition": "inactive: 0.943%"}
{"smiles": "N#CN=C(N)c1ccccc1", "activity, negative = inhibition": "inactive: -4.12%"}
{"smiles": "O=c1[nH]c(/C=C\\c2cccnc2)c([N+](=O)[O-])c(=O)[nH]1", "activity, negative = inhibition": "inactive: -19.9%"}
{"smiles": "Cc1cc(C)c(S(=O)(=O)NCCn2c(C)cc3ccccc32)c(C)c1", "Potency": "active: 35.5 µM"}
{"smiles": "Cc1c2cc(O)c(=O)cc-2oc2cc(O)c(O)cc12", "activity, negative = inhibition": "inactive: -7.79%"}
{"smiles": "Cc1cc(C[n+]2ccsc2N)c2ncccc2c1", "Potency": "active: 39.8 µM"}
{"smiles": "Cc1cccc(C(=O)O[C@@H]2[C@H](Cc3ccccc3)NS(=O)(=O)[C@H]3C[C@@H]4C=C[C@]23O4)c1", "activity, negative = inhibition": "inactive: -0.387%"}
{"smiles": "CCCc1nn2c(N)c(/C=C3\\C=Nc4ccccc43)c(=O)nc2s1", "activity, negative = inhibition": "inactive: 2.25%"}
{"smiles": "COc1cc(NC(=O)[C@@H]2CCCN2S(=O)(=O)c2cccc3cccnc23)cc(OC)c1OC", "activity, negative = inhibition": "inactive: -13.3%"}
{"smiles": "CCN1C(=S)N[C@@H](c2cccs2)C(C(=O)OC)=C1C", "activity, negative = inhibition": "inactive: -1.67%"}
{"smiles": "C=CC[C@@H](CC(=O)N(CCO)Cc1ccccc1)C(=O)NC[C@H](OC(=O)[C@@H](CC=C)Cc1ccc(F)cc1)c1ccccc1", "activity, negative = inhibition": "inactive: 1.85%"}
{"smiles": "CCc1ccc(C2C(C#N)=C(N)SC(N)=C2C#N)s1", "Potency": "active: 35.5 µM"}
{"smiles": "C/C(=C/C(=O)N1CCc2ccccc21)C(=O)O", "activity, negative = inhibition": "inactive: -1.07%"}
{"smiles": "NC(=NCCCCCCN=C(N)/N=C(\\N)Nc1ccc(Cl)cc1)/N=C(\\N)Nc1ccc(Cl)cc1", "Potency": "inactive"}
{"smiles": "Cc1cc2nc3ccc(=[N+](C)C)cc-3sc2cc1N", "Potency": "active: 31.6 µM"}
{"smiles": "CCOC(=O)/C(C#N)=C/c1ccc(N2CCN(C)CC2)cc1", "activity, negative = inhibition": "inactive: 0.589%"}
{"smiles": "CC(C)(C)OC(=O)C[C@H]1C/C=C\\C[C@H](CC(=O)N[C@H](CO)Cc2ccccc2)C(=O)N[C@@H](Cc2ccccc2)COC1=O", "activity, negative = inhibition": "inactive: -0.0344%"}
{"smiles": "COc1ccccc1-c1sc2ccccc2c1-c1ccc2c(c1)OCCO2", "Potency": "active: 20 µM"}
{"smiles": "CC1(C)S[C@@H]2[C@H](NC(=O)[C@H](N)c3ccccc3)C(=O)N2[C@H]1C(=O)O", "activity, negative = inhibition": "inactive: 1.47%"}
{"smiles": "C=CCC[C@@H](Cc1ccc(F)cc1)C(=O)OC[C@@H]1CCCN1C(=O)[C@H](CC=C)CC(=O)N[C@H](CO)Cc1ccccc1", "activity, negative = inhibition": "inactive: -1.71%"}
{"smiles": "NS(=O)(=O)c1ccc(NC(=S)NC(=O)c2ccco2)cc1", "activity, negative = inhibition": "inactive: 1.28%"}
{"smiles": "C[C@@H](NC(=O)[C@@H]1Cc2ccccc2CN1)C(=O)Nc1ccc2c(c1)OCCO2", "activity, negative = inhibition": "inactive: 3.33%"}
{"smiles": "Cn1ncc2c(NCc3ccccc3)ncnc21", "activity, negative = inhibition": "inactive: -0.151%"}
{"smiles": "C#CCn1c(=NC(=O)c2cc(Cl)sc2Cl)sc2cc(S(N)(=O)=O)ccc21", "Potency": "active: 50.1 µM"}
{"smiles": "C=CC[C@@H](CC(=O)N(CCO)Cc1ccccc1)C(=O)NCCOC(=O)[C@H](CC=C)CC(=O)OC(C)(C)C", "activity, negative = inhibition": "inactive: -0.126%"}
{"smiles": "CCOC(=O)/C(C#N)=C/C1=C(N2CCCC2)CC(C)(CC)OC1", "note": "(configuration not stated)", "activity, negative = inhibition": "inactive: -5.7%"}
{"smiles": "CC(C)(C)OC(=O)C[C@@H]1C/C=C\\C[C@H](CC(=O)N[C@@H](CO)Cc2ccccc2)C(=O)N[C@H](Cc2ccccc2)COC1=O", "activity, negative = inhibition": "inactive: 0.271%"}
{"smiles": "COc1ccc(-c2csc(NC(=O)c3ccc(S(=O)(=O)N4CCc5ccccc5C4)cc3)n2)c(OC)c1", "Potency": "active: 50.1 µM"}
{"smiles": "CC1(C)CC(=O)C/C(=N\\NC(=O)C2CC23CCC3)C1", "note": "(configuration not stated)", "Potency": "active: 50.1 µM"}
{"smiles": "COc1cc(/C=C2\\SC(=S)N(CCC(=O)Nc3ccccc3)C2=O)cc(OC)c1OC", "activity, negative = inhibition": "inactive: -7.59%"}
{"smiles": "Cc1csc(CNc2ncnc3ccc(-c4cccc(Cl)c4)cc23)c1", "activity, negative = inhibition": "inactive: -2.45%"}
{"smiles": "CCN1C(=O)[C@H]2[C@@H](c3ccc(-c4ccc(Cl)c(Cl)c4)c(OC)c3)N3CCCC[C@@]3(C(=O)OC)[C@H]2C1=O", "activity, negative = inhibition": "inactive: -5.15%"}
{"smiles": "Cn1c(=O)c2c(nc(Oc3ccccc3)n2C)n(C)c1=O", "activity, negative = inhibition": "inactive: 0.256%"}
{"smiles": "COc1cc(NC(=O)[C@H]2CCCN2S(=O)(=O)c2cccc3cccnc23)cc(OC)c1OC", "activity, negative = inhibition": "inactive: 0.549%"}
{"smiles": "CCN(CC)CCOc1ccc(/C(=C(\\Cl)c2ccccc2)c2ccccc2)cc1", "activity, negative = inhibition": "inactive: 1.07%"}
{"smiles": "CCCCSc1cnn(-c2ccccc2)c(=O)c1SCCCC", "Potency": "active: 39.8 µM"}
{"smiles": "C=CC[C@H](CC(=O)N(CCO)Cc1ccccc1)C(=O)NCCOC(=O)[C@@H](CC=C)CC(=O)OC(C)(C)C", "activity, negative = inhibition": "inactive: -0.771%"}
{"smiles": "CCN1C(=NCCOC)N[C@@H](c2cccc(C(F)(F)F)c2)C(C(=O)OC)=C1C", "activity, negative = inhibition": "inactive: 0.361%"}
{"smiles": "O=C(OCC#CCSc1nnc(-c2cccc3ccccc23)o1)c1cccc2[nH]ccc12", "activity, negative = inhibition": "inactive: -2.66%"}
{"smiles": "CN(C)c1ccc(N/C=C/C(=O)C(F)(F)F)cc1", "Potency": "active: 25.1 µM"}
{"smiles": "CCc1ccccc1N1C[C@@]23C=C[C@@H](O2)C(C(=O)OCC(C)C)[C@H]3C1=O", "note": "(some centres not stated)", "activity, negative = inhibition": "inactive: -5.93%"}
{"smiles": "C=CC[C@H](CC(=O)N(CCO)Cc1ccccc1)C(=O)NC[C@H](OC(=O)[C@@H](CC=C)Cc1ccc(F)cc1)c1ccccc1", "activity, negative = inhibition": "inactive: -2.93%"}
{"smiles": "NC(=O)C1CCN(c2nc(-c3ccccc3Br)cs2)CC1", "activity, negative = inhibition": "inactive: 3.78%"}
{"smiles": "O=C(CN1CCN(Cc2ccccc2)CC1)N/N=C\\C=C/c1ccco1", "activity, negative = inhibition": "inactive: -1.46%"}
{"smiles": "CN1CCN(C(=O)CCN2C(=O)/C(=C\\c3ccc(F)cc3)SC2=S)CC1", "activity, negative = inhibition": "inactive: 2.04%"}
{"smiles": "CC(C)(C)OC(=O)C[C@H]1C/C=C\\C[C@H](CC(=O)N[C@H](CO)Cc2ccccc2)C(=O)N[C@H](Cc2ccccc2)COC1=O", "activity, negative = inhibition": "inactive: -0.398%"}
{"smiles": "CCN1/C(=C/c2ccc3cc(C)ccc3[n+]2CC)Sc2cc(C)c(C)cc21", "activity, negative = inhibition": "inactive: -3.53%"}
{"smiles": "C[C@]12CCC[C@H](O1)[C@H]([C@@H](O)c1ccccc1)O2", "activity, negative = inhibition": "inactive: 3.41%"}
{"smiles": "CCN1C(=S)N[C@@H](c2ccccc2)C(C(=O)OC)=C1C", "activity, negative = inhibition": "inactive: 0.379%"}
